Experimental data: PubChem BioAssay AID485281 (National Center for Advancing Translational Sciences (NCATS), 2010)
Out of some 350,000 compounds screened, about 260 (0.074%) were called active. The inconclusive results got no clear call from the source; some entries with a clear call stand among them for comparison. Calls come from the whole dose curve; as a rule, active = well fitted inhibition curve with a large enough effect; inconclusive = small, poorly fitted or top-dose-only effect; inactive = no such curve, though single readings can be large or run the other way. Potencies beside an inconclusive call are fits to weak or partial responses and may not hold up.
% is set by controls: 0 for no effect and ±100 for the full control effect; potency is the fitted concentration of half-maximal effect; tags give direction and shape of the fitted curve.
Note: nearly all actives have a fitted effect of over 20% in size.

What follows are molecules tested against Ferritin light chain (Equus caballus) (UniProt P02791) (assay: qHTS Assay for Identification of Novel General Anesthetics). Settings: apoferritin/1-aminoanthracene competitive binding, fluorescence; activity change, negative = displacement: at 77.5 µM (top of the series).
Chain of UniProt P02791 (P02791 whole entry, looked up): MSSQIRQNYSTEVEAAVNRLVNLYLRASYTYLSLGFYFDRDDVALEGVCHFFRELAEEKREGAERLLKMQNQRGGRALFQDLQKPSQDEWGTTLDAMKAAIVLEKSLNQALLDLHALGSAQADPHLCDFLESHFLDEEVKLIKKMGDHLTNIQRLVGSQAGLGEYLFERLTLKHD
Outline: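 In PBS, apoferritin at 10 uM is loaded with 1-AMA from a 50% saturated solution. After 10 min of compound exposure at ambient temperature, reduced 535 nm fluorescence indicates probe displacement.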
In the case of CCN1CCN(C(=O)c2cc3c(-c4ccc(Cl)cc4)nn(C)c3s2)CC1, the Potency is reported as inconclusive: 31.6 µM [inhibitor, partial curve]. In the case of OCCC1CN(Cc2c(O)ccc3ccccc23)CCN1CCc1ccccc1 (stereo not given), the Potency is reported as inconclusive: 31.6 µM [inhibitor, partial curve]. With O=C(Nc1ccc(N2C(=O)C3C4C=CC(C4)C3C2=O)cc1Cl)c1cccs1 (stereo not given) the Potency was inconclusive: 3.55 µM [inhibitor, full curve, poor fit]. With O=c1c([N+](=O)[O-])cccn1Cc1ccccc1Cl the Potency was inconclusive: 25.1 µM [inhibitor, partial curve]. With O=C(COC(=O)CCC(=O)c1ccc2c(c1)OCCO2)NCc1ccc2c(c1)OCO2 the Potency was inconclusive: 31.6 µM [inhibitor, partial curve]. With CC(C)(C)CC(=O)Nc1nnc(SCC(=O)Nc2ccccc2F)s1 the Potency was inconclusive: 28.2 µM [inhibitor, partial curve]. In the case of Clc1ccc(OCCOCCNCc2ccccc2)cc1Cl, the Potency is reported as inconclusive: 35.5 µM [inhibitor, single point]. For CCOc1ccc(N(CC(=O)N2CCCCCC2)S(=O)(=O)c2ccc(F)cc2)cc1, the Potency was inconclusive: 22.4 µM [inhibitor, partial curve]. C=C(C)COc1ccc(-c2nc(N)nc(C)c2-c2ccc(OC)cc2)c(O)c1 was tested, and the Potency was inconclusive: 12.6 µM [inhibitor, partial curve]. For CC(NC(=O)c1noc2c1CCCC2)c1ccccc1 (stereo not given), the Potency was inconclusive: 25.1 µM [inhibitor, partial curve]. For COc1ccc(NC(=O)CSc2ccc3nc(-c4ccccc4)cn3n2)c(OC)c1, the “activity change, negative = displacement” value was inactive: 89.7%. With CCCCC1=CC2=CC(=O)C(C)(OC(=O)CC)C(=O)C2=CN1CCc1ccc(Br)cc1 (stereo not given) the “activity change, negative = displacement” value was inactive: -21.3%. With Cc1ccc(C)c(NC(=O)CSc2nnc(CSc3nc(C)cc(C)n3)n2Cc2ccco2)c1 the Potency was inconclusive: 35.5 µM [inhibitor, partial curve]. With CC(=O)N(c1ccccc1)C1CC(C)N(C(=O)c2ccccc2)c2ccccc21 (stereo not given) the Potency was inconclusive: 0.794 µM [inhibitor, full curve, poor fit]. For CS(=O)(=O)NCc1nnc(SCc2c(F)cccc2Cl)o1, the Potency was inconclusive: 11.2 µM [inhibitor, partial curve]. With CCCCSc1nnc(-c2c[nH]c3ccccc23)n1C the Potency was inconclusive: 10 µM [inhibitor, full curve, poor fit]. In the case of O=C(CC1Sc2ccccc2NC1=O)OCC(=O)N1CCc2ccccc21 (stereo not given), the Potency is reported as inconclusive: 8.91 µM [inhibitor, partial curve]. In the case of N#Cc1c(N2CCCC(O)C2)nc(N)c2c(N)nc3c(c12)CC(=O)N3C12CC3CC(CC(C3)C1)C2 (stereo not given), the Potency is reported as inconclusive: 15.8 µM [inhibitor, partial curve]. In the case of N/C(=N\OC(=O)c1ccc(Cl)cc1)c1ccn[nH]1, the Potency is reported as inconclusive: 28.2 µM [inhibitor, partial curve]. With Cc1ccc(-n2ncc(C(=O)NCCc3ccccc3)c2C2CCN(C(=O)OC(C)(C)C)CC2)c(C)c1 the Potency was inconclusive: 3.98 µM [inhibitor, full curve, poor fit]. With Cc1ccsc1/C=C/C1=Cc2c(sc(NC(=O)CSc3n[nH]c(N)n3)c2C#N)C(C)(C)C1 the Potency was inconclusive: 25.1 µM [inhibitor, partial curve]. CC1=NN(C(=O)CSCc2ccccc2)C(O)(c2ccccc2)C1 (stereo not given) was tested, and the Potency was inconclusive: 28.2 µM [inhibitor, partial curve]. CC1CN(C(=O)CCC(=O)N2CCN(c3ccccn3)CC2)c2ccccc2O1 (stereo not given) was tested, and the “activity change, negative = displacement” value was inactive: -12.7%. With COc1ccc(Cn2c(=N)c(C(=O)NCC3CCCO3)cc3c(=O)n4ccccc4nc32)cc1 (stereo not given) the Potency was inconclusive: 50.1 µM [inhibitor, single point]. In the case of CCNC(=O)C/C(C)=N/NC(=O)C12CC3CC(CC(C3)C1)C2, the Potency is reported as inconclusive: 17.8 µM [inhibitor, partial curve]. COc1ccc(Nc2oc(-c3cccs3)nc2C#N)cc1 was tested, and the “activity change, negative = displacement” value was inactive: 198%. With COC(=O)c1cc(-c2ccc(Br)cc2)n[nH]1 the Potency was inconclusive: 56.2 µM [inhibitor, single point]. In the case of CCOc1ccc(NC(=O)CNS(=O)(=O)c2c(C)cc(C)cc2C)cc1, the Potency is reported as inconclusive: 28.2 µM [inhibitor, single point]. For O=C(Oc1ccc(NC2=C(Cl)C(=O)c3ccccc3C2=O)cc1)c1ccc([N+](=O)[O-])cc1, the “activity change, negative = displacement” value was inactive: -1.82%. For C/C(CC(=O)Nc1ccc(Cl)cc1Cl)=N\NC(N)=S, the Potency was inconclusive: 12.6 µM [inhibitor, partial curve]. With COc1cccc2cc(C(=O)OCc3ccccc3)c(=O)oc12 the Potency was inconclusive: 20 µM [inhibitor, partial curve]. In the case of O=C(OCc1cnc(Cl)s1)c1ccccc1Cl, the Potency is reported as inconclusive: 20 µM [inhibitor, partial curve]. O=C(c1ccc(Br)cc1)N(Cc1nc2ccccc2c(=O)[nH]1)C1CCCC1 was tested, and the Potency was inconclusive: 28.2 µM [inhibitor, partial curve]. For COc1ccc(C2NC(=O)NC(C)=C2C(=O)OC2CCCC(C)C2)cc1 (stereo not given), the Potency was inconclusive: 39.8 µM [inhibitor, single point]. For COc1ccc(C(=O)OCC(=O)N2C(C)CCCC2C)cc1[N+](=O)[O-] (stereo not given), the Potency was inconclusive: 14.1 µM [inhibitor, partial curve]. With CCC(C)c1ccc(C(CC)NC(=O)C2CCCO2)cc1 (stereo not given) the Potency was inconclusive: 25.1 µM [inhibitor, partial curve]. In the case of COc1ccc(C(CNC(=O)c2cccc(NS(=O)(=O)c3ccccc3)c2)N(C)C)cc1 (stereo not given), the Potency is reported as inconclusive: 25.1 µM [inhibitor, partial curve]. For C/C(Cl)=C\Cn1c(O)c(N=NC(N)=S)c2cc(Br)ccc21, the Potency was inconclusive: 25.1 µM [inhibitor, partial curve]. For Cc1cc(C)c2c(c1)/C(=N/NS(=O)(=O)c1ccc(Br)cc1)CCC2, the Potency was inconclusive: 28.2 µM [inhibitor, partial curve]. With CC(C)(C)NC(=O)C(c1ccco1)N(Cc1ccc2c(c1)OCO2)C(=O)Cn1nnc2ccccc21 (stereo not given) the Potency was inconclusive: 10 µM [inhibitor, partial curve].
